Laboratory results published in the antibiotic and cytotoxicity screens of Wong et al. (2023).
The list shows a part of the results.

Assays:
[1] = tested on: HSkMC (human skeletal muscle cells); assay: cytotoxicity call (relative viability < 0.9); conditions: 10 µM
[2] = tested on: HepG2; assay: cytotoxicity call (relative viability < 0.9); conditions: 10 µM
[3] = tested on: S. aureus RN4220; assay: growth inhibition call (relative growth <= 0.2); conditions: 50 µM

Cc1ccc(S(=O)(=O)N(C)C[C@H]2Oc3ccc(NC(=O)CCN4CCOCC4)cc3C(=O)N([C@H](C)CO)C[C@H]2C)cc1
inactive: cytotoxicity call [1] | cytotoxicity call [2] | growth inhibition call [3]

COc1ccccc1-c1cnc2c(c1)C(=O)N([C@H](C)CO)C[C@H](C)[C@@H](CN(C)C(=O)c1ccncc1)O2
inactive: cytotoxicity call [1] | cytotoxicity call [2] | growth inhibition call [3]

CCOC(=O)[C@H]1C/C=C/C[C@H](C(=O)OCC)C(=O)O[C@H]2[C@@H](OC)O[C@H](CO)[C@@H](OC(=O)c3c(OC)cccc3OC)[C@@H]2OC1=O
inactive: cytotoxicity call [1] | cytotoxicity call [2] | growth inhibition call [3]

C[C@@H]1CCCCO[C@@H](CN(C)Cc2ccccc2)[C@H](C)CN([C@H](C)CO)C(=O)c2cc(NS(=O)(=O)c3ccccc3)ccc2O1
inactive: cytotoxicity call [1] | cytotoxicity call [2] | growth inhibition call [3]

CC(C)NC(=O)N(C)C[C@H]1Oc2ccc(NC(=O)CCCN(C)C)cc2C(=O)N([C@@H](C)CO)C[C@H]1C
inactive: cytotoxicity call [1] | cytotoxicity call [2] | growth inhibition call [3]

Cc1noc(C)c1NC(=O)N(C)C[C@@H]1Oc2ccc(NC(=O)Nc3cccc4ccccc34)cc2CC(=O)N([C@H](C)CO)C[C@H]1C
inactive: cytotoxicity call [1] | cytotoxicity call [2] | growth inhibition call [3]

CCCN(C)C[C@H]1OCCCC[C@@H](C)Oc2ccc(NC(=O)Nc3ccccc3)cc2C(=O)N([C@H](C)CO)C[C@@H]1C
inactive: cytotoxicity call [1] | cytotoxicity call [2] | growth inhibition call [3]

C[C@H](CO)N1C[C@H](C)[C@@H](CN(C)Cc2ccc(-c3ccccc3)cc2)Oc2c(NC(=O)CCC(F)(F)F)cccc2C1=O
inactive: cytotoxicity call [1] | cytotoxicity call [2] | growth inhibition call [3]

C[C@@H]1CN([C@@H](C)CO)C(=O)c2cc(NS(=O)(=O)c3cn(C)cn3)ccc2O[C@H]1CN(C)S(=O)(=O)c1ccc(Cl)cc1
inactive: cytotoxicity call [1] | cytotoxicity call [2] | growth inhibition call [3]

C[C@H]1CN([C@@H](C)CO)C(=O)c2cc(NC(=O)Cc3ccccc3)ccc2O[C@H]1CN(C)C(=O)Nc1cccc2ccccc12
inactive: cytotoxicity call [1] | cytotoxicity call [2] | growth inhibition call [3]

COCCNC(=O)C[C@H]1C[C@H]2c3cc(NS(C)(=O)=O)ccc3O[C@H]2[C@H](CO)O1
inactive: cytotoxicity call [1] | cytotoxicity call [2] | growth inhibition call [3]

C[C@@H]1CCCCO[C@H](CN(C)C)[C@@H](C)CN([C@H](C)CO)C(=O)c2cc(NC(=O)Nc3cccc4ccccc34)ccc2O1
inactive: cytotoxicity call [1] | cytotoxicity call [2] | growth inhibition call [3]

Cc1ccc(S(=O)(=O)N(C)C[C@@H]2Oc3ccc(NC(=O)c4ccncc4)cc3C(=O)N([C@H](C)CO)C[C@H]2C)cc1
inactive: cytotoxicity call [1] | cytotoxicity call [2] | growth inhibition call [3]

[O-][n+]1cccc(CO)c1
inactive: cytotoxicity call [1] | cytotoxicity call [2] | growth inhibition call [3]

C[C@H](CO)N1C[C@H](C)[C@H](CN(C)Cc2ccccc2F)Oc2cc(C#CCN(C)C)ccc2S1(=O)=O
inactive: cytotoxicity call [1] | cytotoxicity call [2] | growth inhibition call [3]

COc1ccc(S(=O)(=O)Nc2cccc3c2O[C@@H](CN(C)CC2CC2)[C@H](C)CN([C@@H](C)CO)C3=O)cc1
inactive: cytotoxicity call [1] | cytotoxicity call [2] | growth inhibition call [3]

C[C@H](CO)N1C[C@H](C)[C@@H](CN(C)C)OCCCC[C@H](C)Oc2ccc(NC(=O)Nc3ccc(C(F)(F)F)cc3)cc2C1=O
inactive: cytotoxicity call [1] | cytotoxicity call [2] | growth inhibition call [3]

C[C@H]1CN([C@@H](C)CO)S(=O)(=O)c2ccc(C#CCN(C)C)cc2O[C@@H]1CN(C)C(=O)Nc1ccccc1F
inactive: cytotoxicity call [1] | cytotoxicity call [2] | growth inhibition call [3]

OC1CCOCC1
inactive: cytotoxicity call [1] | cytotoxicity call [2] | growth inhibition call [3]

COc1cc(NS(=O)(=O)c2ccc(N)cc2)ncn1
inactive: cytotoxicity call [1] | cytotoxicity call [2] | growth inhibition call [3]

C[C@@H]1O[C@H](O[C@@H]2[C@H](O)C[C@@]3(C)[C@@H](CC[C@]4(C)[C@H]3CC=C3[C@H]5CC(C)(C)CC[C@@]5(C(=O)O[C@H]5O[C@@H](C)[C@@H](O)[C@H](O[C@H]6OC[C@@H](O)[C@@H](O)[C@@H]6O)[C@H]5O[C@@H]5O[C@H](C)[C@H](O)[C@H](O[C@@H]6OC[C@H](O)[C@H](O[C@@H]7O[C@H](C)[C@@H](O)[C@H](O)[C@@H]7O)[C@H]6O)[C@H]5O)[C@@H](O)C[C@@]34C)[C@]2(C)CO)[C@@H](O)[C@H](O[C@H]2OC[C@@H](O)[C@@H](O[C@H]3OC[C@@H](O[C@H]4OC[C@@](O)(CO)[C@@H]4O)[C@@H](O)[C@@H]3O)[C@@H]2O)[C@@H]1O
inactive: cytotoxicity call [1] | cytotoxicity call [2] | growth inhibition call [3]

C[C@H]1CCCCO[C@H](CN(C)S(=O)(=O)c2ccccc2)[C@@H](C)CN([C@@H](C)CO)C(=O)c2cc(NC(=O)c3ccccc3)ccc2O1
inactive: cytotoxicity call [1] | cytotoxicity call [2] | growth inhibition call [3]
